According to the supplement of paper PMC3724861:
The list shows a part of the results.

Tested on: T1, Caupolican (Caup) homeodomain DNA-binding domain
T1 sequence: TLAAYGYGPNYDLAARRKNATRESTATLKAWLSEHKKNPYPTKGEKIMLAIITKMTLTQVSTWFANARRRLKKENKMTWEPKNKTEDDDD
Assay: PBM E-score (8-mer, recovered from the published 9-mer minima) (E-score (dimensionless, -0.5 to 0.5)); Drosophila protein; higher = stronger relative binding preference, active = 0.31 or more
Method in brief: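 Caup's homeodomain DNA-binding domain (residues 214-303) was produced by in vitro transcription and translation and applied at 100 nM to custom-designed protein binding microarrays. Each value is an enrichment score giving relative binding preference for a short DNA word; higher means stronger. Published 9-mer scores were the minimum of their two constituent 8-mer scores, and the 8-mer values were recovered from those minima. A cutoff of 0.31 marks candidate binding sequences.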

Sequence	PBM E-score
AATGTTCC	inactive: 0.2
CCCGTCGG	inactive: -0.289
CAATTGCG	inactive: -0.018
GTTCACTA	inactive: 0.0838
ATATAGTG	inactive: 0.187
ACTCGCAC	inactive: -0.119
ACCGCACG	inactive: -0.0659
CCCCTATC	inactive: -0.117
GAAGAGCC	inactive: -0.179
AGTCCGTA	inactive: 0.0629
GCATCCTA	inactive: -0.0512
CAGGAGAC	inactive: -0.0799
CTTTGCAC	inactive: 0.0568
ACATAGCG	inactive: 0.141
GCCGTTAA	inactive: -0.089
AAGAGGTC	inactive: -0.106
ATCAACTG	inactive: 0.0532
ACGAAGTG	inactive: 0.0473
ATTTGTGG	inactive: 0.112
ACCAGACT	inactive: 0.0865
CCTAAAAA	inactive: -0.0628

Sequence	PBM E-score
TGGCAAAA	inactive: 0.023
CCAGTTAC	inactive: 0.0253
ATCCCAGG	inactive: -0.127
CTCGTTCA	inactive: 0.151
GCGTTCAA	inactive: -0.0257
TCAAGTAA	inactive: 0.223
CTTAAATC	inactive: 0.0678
ATAAGCCG	inactive: -0.103
CGCCTCCC	inactive: -0.283
GAAGCTCA	inactive: -0.0994
AATTGGGG	inactive: -0.104
AAAACGGG	inactive: -0.0406
AGGCAGCC	inactive: -0.315
ACTCGAGT	inactive: 0.0146
CACCCAGC	inactive: -0.176
AACCCGTT	inactive: 0.00465
GCTCAGAC	inactive: -0.0786
TAGTTGGA	inactive: 0.0238
AGACGGTA	inactive: -0.0931
TCGGCTAA	inactive: -0.0847
AGAATGAA	inactive: 0.0624

Sequence	PBM E-score
AATCCTGC	inactive: 0.0454
TACAGATA	inactive: 0.222
AAAGAGAT	inactive: 0.00948
CCACCGAC	inactive: -0.106
ATATGGGC	inactive: 0.00884
TAGCTGCA	inactive: -0.0492
AAACGATG	inactive: 0.0787
ACACGGTA	active: 0.327
ACAACGGT	inactive: 0.118
TCAACAAA	inactive: 0.157
GTGCCTGA	inactive: -0.136
AACACATA	active: 0.323
GAAAAGGC	inactive: -0.0658
AACCCGGT	inactive: -0.0602
ATATGCCA	inactive: 0.0058
TACACCGA	inactive: 0.188
CTTGCTTA	inactive: -0.00428
ATCCACCA	≥ -0.00321
CAAGAGCA	inactive: 0.0574
